System: WT mouse embryonic fibroblasts
Experiment: MNNG cytotoxicity in WT MEFs
Conditions: 24 hours after MNNG 500 μM for 15 min
Procedure: Unless otherwise set forth herein, cell cultures, transfection, lentiviral transduction and cytotoxicity referenced in the examples below were prepared using the following materials and procedures. MEF cells from wild type (“WT”) or Harlequin (“Hq”) mice and HeLa cells were cultured in Dulbecco's Modified Eagle's Medium (obtained from Invitrogen) and supplemented with 10% Fetal Bovine Serum (obtained from HyClone), 100 μg/ml streptomycin, and 100 U/ml penicillin (obtained from Invitrogen). Flag-tagged AIF (both WT and Pbm) was transfected using lipofectamine Plus (obtained from Invitrogen). […] Cell viability was determined the following day by unbiased objective computer-assisted cell counting after staining of all nuclei with 7 μM Hoechst 33342 (obtained from Invitrogen) and dead cell nuclei with 2 μM propidium iodide (Invitrogen). The numbers of total and dead cells were counted with the Axiovision 4.3 software (obtained from Carl Zeiss MicoImaging, Germany). At least three separate experiments using at least six separate wells were performed with a minimum of 15,000-20,000 neurons or cells counted per data point. […] The percentage of cell death was determined as the ratio of live to dead cells as compared with the percentage of cell death in control wells to account for cell death attributed to mechanical stimulation of the cultures. […]

B1: WT-AIF-Flag: C-terminal Flag-tagged mouse wild type AIF, delivered by lentivirus, AAV2 or transfection (protein, UniProt Q9Z0X1 1-612, looked up)
chain: MFRCGGLAGAFKQKLVPLVRTVYVQRPKQRNRLPGNLFQQWRVPLELQMARQMASSGSSGGKMDNSVLVLIVGLSTIGAGAYAYKTIKEDQKRYNERVMGLGLSPEEKQRRAIASATEGGSVPQIRAPSHVPFLLIGGGTAAFAAARSIRARDPGARVLIVSEDPELPYMRPPLSKELWFSDDPNVTKTLQFRQWNGKERSIYFQPPSFYVSAQDLPNIENGGVAVLTGKKVVHLDVRGNMVKLNDGSQITFEKCLIATGGTPRSLSAIDRAGAEVKSRTTLFRKIGDFRALEKISREVKSITVIGGGFLGSELACALGRKSQASGIEVIQLFPEKGNMGKILPQYLSNWTMEKVKREGVKVMPNAIVQSVGVSGGRLLIKLKDGRKVETDHIVTAVGLEPNVELAKTGGLEIDSDFGGFRVNAELQARSNIWVAGDAACFYDIKLGRRRVEHHDHAVVSGRLAGENMTGAAKPYWHQSMFWSDLGPDVGYEAIGLVDSSLPTVGVFAKATAQDNPKSATEQSGTGIRSESETESEASEITIPPSAPAVPQVPVEGEDYGKGVIFYLRDKVVVGIVLWNVFNRMPIARKIIKDGEQHEDLNEVAKLFNIHED
modifications: full-length C-terminal Flag tag
notes: C-terminal Flag-tagged mouse wild type AIF, delivered by lentivirus, AAV2 or transfection
effect on MNNG-induced cell death: failed to affect susceptibility of WT MEFs to MNNG-induced cell death

— patent US20120122765A1, “COMPOUNDS AND RELATED METHODS FOR MANIPULATING PARP-1-DEPENDENT CELL DEATH” (priority 2010, published 2012)
